Assay results taken from the supplement of paper PMC3334620.
The full ranking holds about 33,000 sequences; the median of “E-score (-0.5 to 0.5)” is about -0.043, and the highest 2% start at about 0.37. The list shows a part of the results.

These sequences were tested against T1, Upc2 (UniProt Q12151) (assay: PBM E-score (8-mer binding enrichment) (E-score (-0.5 to 0.5)); higher = stronger / more preferred TF binding; most listed sequences are background and not binding sites). Details: protein concentration: 200 nM; construct: GST-full length.
T1 sequence: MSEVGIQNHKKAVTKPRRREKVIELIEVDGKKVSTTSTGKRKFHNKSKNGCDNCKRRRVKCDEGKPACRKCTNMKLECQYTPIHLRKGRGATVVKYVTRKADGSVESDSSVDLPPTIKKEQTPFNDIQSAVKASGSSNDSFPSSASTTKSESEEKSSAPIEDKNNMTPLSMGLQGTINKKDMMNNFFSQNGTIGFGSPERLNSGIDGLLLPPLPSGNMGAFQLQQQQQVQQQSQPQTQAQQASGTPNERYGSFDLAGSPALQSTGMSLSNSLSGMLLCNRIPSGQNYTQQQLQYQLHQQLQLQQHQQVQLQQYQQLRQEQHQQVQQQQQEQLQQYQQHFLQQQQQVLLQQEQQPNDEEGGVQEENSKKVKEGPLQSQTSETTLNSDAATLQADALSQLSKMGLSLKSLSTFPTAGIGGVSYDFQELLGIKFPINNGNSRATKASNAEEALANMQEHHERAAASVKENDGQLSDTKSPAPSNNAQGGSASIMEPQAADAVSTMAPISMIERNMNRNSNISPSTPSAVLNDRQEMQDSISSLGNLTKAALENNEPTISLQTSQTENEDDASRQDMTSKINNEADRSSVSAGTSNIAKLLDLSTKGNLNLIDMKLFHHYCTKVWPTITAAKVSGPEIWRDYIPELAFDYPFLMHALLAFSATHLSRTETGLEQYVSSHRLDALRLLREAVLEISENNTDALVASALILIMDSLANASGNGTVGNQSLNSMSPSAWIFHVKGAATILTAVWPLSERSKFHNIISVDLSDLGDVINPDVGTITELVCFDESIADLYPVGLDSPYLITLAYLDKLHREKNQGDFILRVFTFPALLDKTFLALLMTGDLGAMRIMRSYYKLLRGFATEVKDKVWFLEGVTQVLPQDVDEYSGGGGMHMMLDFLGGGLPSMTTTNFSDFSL
Method in brief: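 For each ungapped eight-base word taken together with its reverse complement, the Universal PBM Analysis Suite assigned an E-score. Binding data came from GST-tagged yeast transcription factors, applied at about 100-200 nM, on universal all-10-mer Agilent arrays made double-stranded by primer extension. Fluorescent anti-GST marked bound protein, and scans were normalised with masliner.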

Sequence | PBM E-score
GTAACCCA | 0.217
AGACTTAG | -0.263
CATATCAC | 0.0559
ATTGTAGC | 0.00408
AGGTATCA | -0.208
ATCTATCC | -0.21
CCCACTCA | -0.112
CCTAGTTA | -0.143
CATCGTAG | 0.295
ACGCTTAC | 0.111
ACGAGTCC | 0.337
GGCCATAC | 0.164
GGACCAAA | 0.0431
CGTGTAGC | 0.164
CCGAACAG | 0.17
ACTCTAAC | -0.0897
GATGAATC | -0.0918
ACAAAATA | -0.0444
AATTCTTG | -0.0346
AGTCGCAC | 0.204
AGTGAGTG | -0.142
CGATTCCC | -0.0861
AGCCGCCC | -0.123
CTATACTC | 0.0215
CTCGCGGC | -0.0185

Sequence | PBM E-score
GCCAGTGA | -0.304
CGCTGAAC | 0.249
AACGACGC | 0.442
ACTCTCCA | -0.117
ATCCCTTC | -0.0437
CGCCCAAA | -0.0966
CAACCCGC | 0.0141
CTTGAACC | -0.0572
AATATATT | 0.146
TCACAGAA | -0.0814
GACAGCCA | -0.204
CCATAAAA | -0.131
ACAATATG | -0.0983
ACATCACC | -0.127
AACGCCTG | 0.0818
CACTTACG | 0.335
CCTGAAAG | -0.123
AGGCAACG | -0.0576
GATTGGTA | -0.0647
CTTTGTGA | -0.205
CCTTCTCA | -0.115
AGCTTTGA | -0.0856
CGGAAGTC | 0.152
ACCCGGCC | -0.121
AAAGAGTA | -0.162

Sequence | PBM E-score
GCGCGCGC | 0.131
GGCCCTAC | -0.0996
GACCCCTC | -0.255
GACCACAC | -0.0889
AGAAGGCT | -0.268
GGGAGTGA | -0.192
CCTGACCC | -0.181
TACGGTAA | 0.354
CAGCGCTA | 0.0254
CTAACCAA | -0.0886
CAGGGTAC | 0.0183
CAGCCGGC | -0.00215
AACCCGAT | 0.121
CCGTAGTA | -0.105
GGCTTCAA | -0.0553
ATACTGAT | 0.146
GCTGAACA | -0.103
CCTCGAAG | -0.0923
ATAAAGTC | 0.0783
AGGTTATA | 0.14
AGATAAGC | 0.0651
CGTAAGTA | 0.216
CCCAAAGG | -0.169
CTCACATC | -0.0489
AGTAAGCC | -0.155

Sequence | PBM E-score
AAGGTCTG | -0.163
ATTTCGCA | 0.17
CCAATTCG | 0.15
CCTCTTAA | 0.14
CATTGCTA | -0.0342
CCACTACA | -0.18
AGGGAGAA | -0.32
CAACCAAA | -0.00055
AACTCTAC | 0.00393
ACAAGTAG | -0.361
AGGTGTCC | -0.0415
AAGAAAGT | 0.123
GGTCATCA | -0.013
ACTCACGC | 0.0702
CATCGTAA | 0.389
ACTCTATA | 0.0319
GTGCAATA | -0.0436
AAATGCGC | -0.0546
GACCCATA | 0.016
GATAATGA | -0.0247
AACCGTTA | 0.111
AACCGCCG | 0.0841
AACAGGAC | -0.0982
AGACAATG | -0.027
GAGCTACA | -0.311

Sequence | PBM E-score
CATATATA | 0.113
AGGGACCC | -0.16
CCTGAGAC | -0.183
ACGATCGG | 0.295
CGCCGTTC | 0.339
TCCTTTCA | -0.056
AGTAAAGC | -0.0204
ACTCCGTA | 0.29
AGACCAGC | -0.327
CAAGATAA | -0.0557
ATATGTAA | -0.144
ATAATGGG | 0.078
CGGACGAC | -0.21
ATCGACTA | -0.1
TATCAGCA | -0.108
CAAGATGA | -0.177
ACCCAAGG | 0.0128
TAACGGGA | 0.0733
ACGGAACT | 0.0402
AGAGATCA | -0.181
CTGTAATC | -0.0664
ATCGAAAT | -0.0104
CAAGTTCG | 0.0878
AGACGTTC | 0.121
ATGCGCCA | -0.0886

Sequence | PBM E-score
ACCTAAAG | -0.111
GTCAAGAC | -0.383
CCAAACCG | -0.0754
GCTCCGAC | -0.188
ATCTGGGC | -0.188
ATTCTGCA | 0.0977
GCAGTCCA | -0.0795
ATTGTGGG | -0.282
AGCGCGAT | 0.146
CTTATCGC | -0.00093
TGGCACCA | -0.193
GACCGCAC | 0.0252
ACGGTTCC | 0.146
CGTCGGAG | -0.056
GGGCGCCC | -0.0753
CACGTCTC | -0.00795
ATAAACCG | 0.0951
CTAATGCA | -0.0701
ACCCTTTC | -0.133
ACAGACGC | -0.107
GAACGTGA | 0.063
GCCTCGTA | 0.473
CACCTGCA | -0.204
GTAGCCGA | 0.0295
CATGCTAA | -0.2

Sequence | PBM E-score
GACGCTCC | -0.0386
AACCGACC | 0.257
ATGCTGAG | -0.269
CAACGCAG | -0.0855
GAATAACC | 0.0541
GCCTGAAA | -0.045
GCGCACCC | -0.013
ACACACGG | -0.177
CAGGTTTA | 0.0194
ATGAGAAA | -0.0659
TAAGACGA | 0.15
AGCGATGA | 0.0502
AATAAGCC | -0.208
ACTGGTCT | -0.0645
CGCAGTTA | 0.00034
CCGCCTGA | -0.158
ATGAGCAT | -0.144
GAATCACC | 0.0205
GTATCGCA | 0.0755
CGGGACCG | 0.0515
ACTAGACT | 0.0823
AGTGTCAA | -0.184
